{"source": "patent US11135177B2", "about": "“Methods of making and using compositions comprising flavonoids” (VIZURI HEALTH SCIENCES CONSUMER HEALTHCARE, INC., priority 2009, dated 2021)", "key": {"[1]": {"assay": "Qualitative assessment of hydrated flavonoid suspension in Aqueous Phase Lotion diluted with water", "format": "physicochemical", "conditions": "hydrated flavonoid 1.25% in APL; 5 ml of lotion in 150 ml of water"}, "[2]": {"assay": "Solubility in polysorbate 80 and other nonionic surfactants via the high temperature processing method"}, "[3]": {"conditions": "cited from earlier work; for SOLUBILITY (ppm) / solubility: published; for WATER SOLUBILITY (mg/ml): saturation concentrations varied depending on published sources"}, "[4]": {"conditions": "process 1: high temperature method as for apigenin"}, "[5]": {"conditions": "process 2: H2O & PS80 slurry boiled"}}, "note": "Like-named read-outs stand apart in the source and are kept apart here."}
{"compound": "COc1ccc([C@@H]2CC(=O)c3c(O)cc(O[C@@H]4O[C@H](CO[C@@H]5O[C@@H](C)[C@H](O)[C@@H](O)[C@H]5O)[C@@H](O)[C@H](O)[C@H]4O)cc3O2)cc1O", "note": "[HESPERIDIN]", "values": [{"measurement": "Evidence of Nano Particles", "setting": "[1]", "result": "Yes"}, {"measurement": "Particulate Settling After 3 hours", "setting": "[1]", "result": "None/Cloudy"}, {"measurement": "SOLUBLE CONC. RANGE (% wt/wt) in PS80", "setting": "[2]; [4]", "result": "1. ~<2% wt/wt"}, {"measurement": "SOLUBLE CONC. RANGE (mg/ml) in PS80", "setting": "[2]; [4]", "result": "(20 mg/ml)"}, {"measurement": "SOLUBLE CONC. RANGE (% wt/wt) in PS80", "setting": "[2]; [5]", "result": "2. ~<1% wt/wt"}, {"measurement": "SOLUBLE CONC. RANGE (mg/ml) in PS80", "setting": "[2]; [5]", "result": "(<10 mg/ml)"}]}
{"compound": "Oc1ccc(C=Cc2cc(O)cc(O)c2)cc1", "note": "[RESVERATROL]", "values": [{"measurement": "solubility in alcohol", "setting": "[3]; in alcohol, published sources", "result": 50000, "unit": "µg/mL"}, {"measurement": "Evidence of Flavonoid Solubility", "setting": "[1]", "result": "Yes"}, {"measurement": "Evidence of Nano Particles", "setting": "[1]", "result": "Yes"}, {"measurement": "Particulate Settling After 3 hours", "setting": "[1]", "result": "None/Pink"}]}
{"compound": "O=c1cc(-c2ccc(O)cc2)oc2cc(O)cc(O)c12", "note": "[apigenin, 4′,5,7,-trihydroxyflavone]", "values": [{"measurement": "SOLUBILITY (ppm)", "setting": "[3]; Ethyl Alcohol", "result": "1,630 ppm"}, {"measurement": "solubility", "setting": "[3]; Ethyl Alcohol", "result": 1650, "unit": "µg/mL"}, {"measurement": "SOLUBILITY (ppm)", "setting": "[3]; Polysorbate 80", "result": 370, "unit": "ppm"}, {"measurement": "solubility", "setting": "[3]; Polysorbate 80", "result": 370, "unit": "µg/mL"}, {"measurement": "Apigenin Literature Solubility", "setting": "[3]; Propylene Glycol", "result": "<100", "unit": "µg/mL"}, {"measurement": "Apigenin Literature Solubility", "setting": "[3]; Span 20", "result": 170, "unit": "µg/mL"}, {"measurement": "Apigenin Literature Solubility", "setting": "[3]; Span 80", "result": 150, "unit": "µg/mL"}, {"measurement": "SOLUBILITY (ppm)", "setting": "[3]; Water", "result": 1.35, "unit": "ppm"}, {"measurement": "solubility", "setting": "[3]; Water", "result": 1.35, "unit": "µg/mL"}, {"measurement": "WATER SOLUBILITY (mg/ml)", "setting": "[3]", "result": "* 0.00002 mg/ml"}]}
{"compound": "O=c1cc(-c2ccc(O)c(O)c2)oc2cc(O)cc(O)c12", "note": "[luteolin, 3′,4′,5,7-tetrahydroxyflavone]", "values": [{"measurement": "WATER SOLUBILITY (mg/ml)", "setting": "[3]", "result": "* 0.38 mg/ml"}, {"measurement": "Evidence of Nano Particles", "setting": "[1]", "result": "Yes"}]}
{"compound": "O=c1c(O)c(-c2ccc(O)c(O)c2)oc2cc(O)cc(O)c12", "note": "[quercetin, Quercetin]", "values": [{"measurement": "WATER SOLUBILITY (mg/ml)", "setting": "[3]", "result": "* <1 mg/ml"}, {"measurement": "Evidence of Nano Particles", "setting": "[1]", "result": "Yes"}, {"measurement": "Particulate Settling After 3 hours", "setting": "[1]", "result": "None"}]}
{"compound": "C[C@@H]1O[C@@H](OC[C@H]2O[C@@H](Oc3c(-c4ccc(O)c(O)c4)oc4cc(O)cc(O)c4c3=O)[C@H](O)[C@@H](O)[C@@H]2O)[C@H](O)[C@H](O)[C@H]1O", "note": "[rutin, RUTIN]", "values": [{"measurement": "WATER SOLUBILITY (mg/ml)", "setting": "[3]", "result": "* 0.07 mg/ml"}]}
